# Assay results taken from paper PMC4336329 (PLoS ONE, 2015).
# Among all 310,000 compounds or so, about 2,200 (0.71%) showed an effect of 50% or more. The effect is printed as a negative number. Some of the results follow.
# Biological target: human ether-à-go-go-related gene (hERG) potassium channel (human, UniProt Q12809)
# Assay: primary screen, population patch clamp on CHO cells stably expressing hERG
# Chain of human ether-à-go-go-related gene (hERG) potassium channel (Q12809 whole entry, looked up): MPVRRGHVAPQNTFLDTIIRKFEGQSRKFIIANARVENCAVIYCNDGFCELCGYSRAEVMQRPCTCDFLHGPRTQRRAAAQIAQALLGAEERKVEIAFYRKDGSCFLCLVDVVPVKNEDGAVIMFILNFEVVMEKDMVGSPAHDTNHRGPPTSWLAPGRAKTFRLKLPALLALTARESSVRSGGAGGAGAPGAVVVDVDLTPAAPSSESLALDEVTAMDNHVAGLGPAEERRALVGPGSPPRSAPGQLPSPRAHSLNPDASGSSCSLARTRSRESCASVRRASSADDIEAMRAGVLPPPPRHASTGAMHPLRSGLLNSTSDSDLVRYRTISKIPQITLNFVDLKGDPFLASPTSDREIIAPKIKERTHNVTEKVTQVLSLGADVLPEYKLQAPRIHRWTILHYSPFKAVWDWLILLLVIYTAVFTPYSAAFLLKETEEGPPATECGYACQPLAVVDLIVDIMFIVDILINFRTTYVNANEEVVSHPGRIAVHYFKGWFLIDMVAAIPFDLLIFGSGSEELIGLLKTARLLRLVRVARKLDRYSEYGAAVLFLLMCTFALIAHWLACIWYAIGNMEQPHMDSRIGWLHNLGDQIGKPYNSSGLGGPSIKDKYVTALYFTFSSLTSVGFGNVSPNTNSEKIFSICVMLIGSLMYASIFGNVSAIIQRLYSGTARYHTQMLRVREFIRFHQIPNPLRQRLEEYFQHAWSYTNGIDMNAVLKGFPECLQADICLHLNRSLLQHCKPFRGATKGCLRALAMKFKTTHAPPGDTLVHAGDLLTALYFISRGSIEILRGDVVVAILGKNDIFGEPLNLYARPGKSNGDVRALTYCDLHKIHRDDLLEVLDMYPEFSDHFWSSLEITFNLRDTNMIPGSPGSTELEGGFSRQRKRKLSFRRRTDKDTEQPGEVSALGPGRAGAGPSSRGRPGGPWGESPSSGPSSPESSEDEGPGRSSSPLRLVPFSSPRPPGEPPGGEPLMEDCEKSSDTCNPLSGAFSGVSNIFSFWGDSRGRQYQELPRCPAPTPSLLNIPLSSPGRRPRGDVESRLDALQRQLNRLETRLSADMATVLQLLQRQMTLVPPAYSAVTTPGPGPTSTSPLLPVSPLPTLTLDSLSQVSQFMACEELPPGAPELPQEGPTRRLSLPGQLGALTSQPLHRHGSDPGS
row,SMILES,"hERG current change (%, negative = inhibition) at 1uM"
1,COc1ccc(CNC(=S)Nc2ccc(F)c(Cl)c2)cc1OC,7.16%
2,CN(C)C(=S)N=Nc1[nH]c2ccccc2c1O,19.5%
3,Cc1cccc(C)c1NC(=S)NCc1ccccc1,8.29%
4,Cc1ccc(CNS(=O)(=O)c2ccc([N+](=O)[O-])cc2)cc1,17.1%
5,CCOc1cc(/C=C/C(=O)O)ccc1OCc1ccccc1,7.7%
6,COCCN(C(=O)c1ccccc1F)c1nnc(-c2ccc(OC)cc2)s1,11.6%
7,Cc1ccc(CN2CCNC(=O)C2CC(=O)NC2CCCCCC2)o1 (stereo not drawn),7.02%
8,COc1ccc(CNC(=O)Nc2cccc3ccccc23)cc1,10.7%
9,CCn1cc(/C=C/C(=O)NCc2c(C)nn(C)c2C)cn1,-1.21%
10,COCCNC(=O)C(=O)Nc1cc2c3c(c1)CC(=O)N3CCC2,16.5%
11,CC(C)Cc1nc(N2CCOCC2)c(C#N)c2c1COC(C)(C)C2,-0.329%
12,Clc1ccc(-c2nnc(-c3ccccc3)nc2-c2c[nH]c3ccccc23)cc1,8.98%
13,O=C(COc1ccccc1Cl)N1CCCCCCC1,7.29%
14,O=C(CSc1nnc(-c2cc3ccccc3cc2O)n1Cc1ccco1)c1ccc(F)cc1,-3.39%
15,COc1ccc(-n2nc(C(=O)NCc3cc(OC)ccc3OC)c3c4ccccc4n(C)c3c2=O)cc1,16.4%
16,COc1ccccc1NC(=O)N1CCCC1,17.6%
17,COc1cc(C(=O)Nc2nccs2)ccc1OCc1c(C)noc1C,12.2%
18,COC(=O)c1ccc(CNC(=O)CCNC(=O)c2ccco2)cc1,1.62%
19,COC(=O)c1ccc(OCC2c3cc(OC)c(OC)cc3CCN2C(=O)C2CC2)cc1 (stereo not drawn),-6.16%

row,SMILES,"hERG current change (%, negative = inhibition) at 1uM"
1,COC(=O)C1N[C@@H]([C@@H](NC(=O)COc2ccccc2)C(=O)NCc2ccsc2)SC1(C)C (stereo partly drawn),7.39%
2,Cc1cc(C(=O)Cn2nc(C(=O)O)c3ccccc3c2=O)c(C)n1CCc1ccc(Cl)cc1,1.56%
3,CCCNC(=O)CN1C(=O)COc2ccc(S(=O)(=O)N3CC(C)CC(C)C3)cc21 (stereo not drawn),-1.64%
4,Cc1ccc(N2C(=O)CN=C2Nc2nc(C)cc(C)n2)cc1,12.2%
5,Cc1ccc2cccc(OCC(=O)Nc3ccc4c(c3)OCO4)c2n1,6.79%
6,COc1cccc(NC(=O)c2ccc(N3C(=O)C4CC=CCC4C3=O)cc2)c1 (stereo not drawn),3.45%
7,O=C(CSc1nc2ccccc2[nH]1)NCc1ccc(F)cc1,6.84%
8,CN(CC(=O)Nc1ccc(Cl)c(C(F)(F)F)c1)C(=O)C1CC(=O)N(C2CCCC2)C1 (stereo not drawn),6.59%
9,CCCOc1ccc(C(CC(=O)O)NC(=O)Cc2ccccc2)cc1 (stereo not drawn),13.7%
10,C=CCNC(=S)N1CCN(Cc2ccccc2)CC1.O=C(O)C(=O)O,6.78%
11,Cc1ccc(OCCSc2nc(NC(C)C)nc(NC(C)C)n2)cc1,3.16%
12,Nc1c2c(nc3sc4c(c13)CCCC4)CCCCC2,-0.153%
13,COc1ccc(NC(=S)N(CCCN2CCC(C)CC2)Cc2cccs2)cc1,-47.5%
14,CCOc1ccc2oc(C(=O)OCC(=O)N3CCCC(C)C3)c(C)c2c1 (stereo not drawn),9.09%
15,O=C(COC(=O)Cn1cnc2ccccc2c1=O)NCc1ccccc1Cl,9.28%
16,CCC(C)NC(=O)CSc1ncnc2sccc12 (stereo not drawn),19.2%
17,CSc1ccc(N2C(=O)NC3(CCCCC3)C2=O)cc1,8.73%
18,COc1ccccc1NC(=O)CN(C)S(=O)(=O)c1ccc2c(c1)CCC(=O)N2,-20.9%
19,Cc1cc2c(c(=O)o1)C(C1C=CCCC1)C(C#N)=C(N)O2 (stereo not drawn),4.98%

row,SMILES,"hERG current change (%, negative = inhibition) at 1uM"
1,CSc1nc(Cl)c(Cc2ccc(OCC(C)C)cc2)c(N2CCOCC2)n1,13.9%
2,O=S1(=O)CC/C(=N\Nc2ccc(F)cc2)c2ccsc21,4.93%
3,O=C(NCC1CCCO1)C(C(=O)c1ccccc1)n1cc(Cl)ccc1=O (stereo not drawn),-4.13%
4,COC(=O)C(C)Sc1nnc2n(-c3cccc(C)c3)c(=O)c3c4c(sc3n12)CCCC4 (stereo not drawn),10.6%
5,CC(=O)c1ccc(OCc2ncc(C(F)(F)F)cc2Cl)cc1,8.42%
6,CC(C)c1ccc(CN2CCC(C(=O)NCc3cccnc3)CC2)cc1.O=C(O)C(=O)O,-28.9%
7,O=C(CCCN1C(=O)/C(=C/c2ccccc2)SC1=S)Nc1ccc(C(=O)O)c(O)c1,14%
8,COc1ccc(S(=O)(=O)N2CCCCC2)cc1NC(=O)c1ccco1,8.76%
9,C/C(=N\NC(=O)COc1ccc(C)cc1[N+](=O)[O-])c1ccc2c(c1)OCCO2,8.71%
10,CCOC(=O)c1nc2cc3n(c(CC(C)C)c-2c1C)CC(C)=C3C.Cl,-54.2%
11,COc1ccc(N2C(=O)/C(=C/c3cccs3)C(=O)NC2=S)cc1,12.7%
12,S=C(NCc1cccnc1)Nc1ccc(Oc2ccccc2)cc1,8.29%
13,Brc1cccc(C2Nc3cccc4cccc(c34)N2)c1,14.5%
14,CCOCCCNC(=O)Cc1ccc(Br)cc1,11.1%
15,COC(=O)c1c(C)oc2ccc(N(C(C)=O)S(=O)(=O)c3ccccc3)cc12,2.27%
16,S=C(NCCCN1CCOCC1)Nc1ccc(Cl)cc1Cl,-5.97%
17,O=C(O)c1cccc(NS(=O)(=O)/C=C/c2ccccc2)c1,5.07%
18,Cc1ccc(-n2nnnc2SCC(=O)Nc2sc(C)c(C)c2C#N)cc1C,3.85%
19,CN(C)/C=C(/C(=O)c1ccccc1)S(=O)(=O)c1ccc(Cl)cc1,10%
